# ± gives the standard deviation of the averaged measurements. In all, about 4,100 sequences were measured (“relative kcat/Km (krel) vs genomic leader AAAGAU”: median about 1.7, highest 2% from about 6.5 on). Only a part is listed here, and it is no random draw.
# Molecular target: T1, E. coli RNase P holoenzyme (M1 P RNA + rnpA protein) (UniProt P0A7Y8)
# T1 sequence: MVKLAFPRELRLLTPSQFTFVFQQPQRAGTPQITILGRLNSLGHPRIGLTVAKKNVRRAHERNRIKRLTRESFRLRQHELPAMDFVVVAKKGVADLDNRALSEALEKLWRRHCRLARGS
# Assay: relative kcat/Km (krel) vs genomic leader AAAGAU (relative (reference leader = 1)); higher = faster RNase P cleavage
# Experimental: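 HTS-Kin: a pool of ptRNA-Met (21C construct) with all 4096 combinations of 5' leader nucleotides N(-6) to N(-1) was processed in vitro by E. coli RNase P (P RNA + rnpA/C5 protein) under multiple-turnover conditions at 37 C, pH 8, 17.5 mM MgCl2. Residual substrate was Illumina-sequenced at several fractions reacted, and relative kcat/Km (krel) was computed by internal competition kinetics, calibrated to the genomic leader (AAAGAU = 1). The listed hexamer is the varied N(-6)..N(-1) leader (DNA letters), and it sits between a fixed 5' stem-loop flank (GCAUGCACGAAAGUGCGUGCUAUGAA) and the mature tRNA-Met starting GGCUACGUAGCUCAGUUGG. Two technical replicates are averaged.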
# [1] = fraction of substrate reacted: ~9-10% (9.79% repeat 1, 9.1% repeat 2)
# [2] = fraction of substrate reacted: ~26-29% (28.66% repeat 1, 26.4% repeat 2)
# [3] = fraction of substrate reacted: ~13-16% (15.68% repeat 1, 13.17% repeat 2)
Sequence,relative kcat/Km [1],relative kcat/Km [2],relative kcat/Km [3]
TGATGG,1.11 ± 0.94,0.867 ± 0.14,–
AACCCC,3.18 ± 2.8,2.61 ± 0.82,2.43 ± 0.93
ACGAAA,1.79 ± 0.39,2.72 ± 1.1,1.66 ± 0.37
AGCATC,1.66 ± 0.9,2.86 ± 0.74,1.68 ± 0.58
TCCAAC,3.85 ± 2,5.77 ± 1.9,4.11 ± 0.11
AATCAG,–,1.9 ± 0.11,0.468 ± 0.24
GTTGAC,2.56 ± 0.24,4.3 ± 1.8,3.28 ± 0.96
CCAGCA,1.37 ± 0.54,0.927 ± 0.46,0.452 ± 0.45
TTGATC,2.19 ± 1.3,2.5 ± 0.46,2.1 ± 0.3
TTCGGA,–,1.79 ± 1,–
GGGTCC,–,0.769 ± 0.49,0.434 ± 0.14
TCTCAG,–,2.83 ± 1.1,1.21 ± 0.028
CCGACA,0.997 ± 0.31,0.842 ± 0.8,–
ACTTGG,0.844 ± 0.79,0.897 ± 0.036,0.9 ± 0.092
CGTACG,–,1.43 ± 0.11,–
TCGACC,3.05 ± 1.3,3 ± 0.92,2.32 ± 1.3
GAGGGC,0.814 ± 0.78,1.59 ± 1.5,–
TAGGAG,–,0.884 ± 0.25,–
ACACCT,2.6 ± 1.3,2.53 ± 1.6,1.66 ± 0.33
CGGTAA,0.528 ± 0.29,0.91 ± 0.35,0.278 ± 0.2
AATCAC,2.09 ± 1.1,4.12 ± 1.3,2.63 ± 0.078
CGGCAG,0.577 ± 0.32,0.588 ± 0.57,–
CTCGAC,5.18 ± 1.3,–,–
ACTAGC,1.98 ± 0.29,2.58 ± 0.78,1.48 ± 0.4
TGTCCT,2.14 ± 0.73,3.5 ± 1.6,2.41 ± 0.25
TGCCTA,1.59 ± 0.41,2.81 ± 1.7,1.92 ± 0.26
CGACTC,1.3 ± 0.15,1.66 ± 0.54,1.45 ± 0.46

Sequence,relative kcat/Km [1],relative kcat/Km [2],relative kcat/Km [3]
CATCCG,–,0.772 ± 0.13,–
TTCCAA,4.78 ± 1.8,8.56 ± 3.5,6.03 ± 0.65
GCGTCG,–,0.845 ± 0.14,–
CCGATG,–,1.14 ± 0.71,–
ATTTCT,3.13 ± 0.84,4.49 ± 1.6,3.56 ± 0.7
CCATTC,2.03 ± 0.64,3.79 ± 1.1,2.95 ± 0.95
GCGTGC,1.26 ± 0.1,0.876 ± 0.036,1.35 ± 0.022
CAGGGC,–,0.809 ± 0.4,0.734 ± 0.28
CTCGCT,1.9 ± 0.4,3.67 ± 0.94,2.61 ± 0.72
GAGTCA,1.56 ± 0.96,1.76 ± 0.32,1.608 ± 0.016
AAACGA,2.12 ± 0.92,2.21 ± 0.41,1.89 ± 0.67
CCCACG,0.913 ± 0.26,2.57 ± 0.54,–
CGTCGA,2.65 ± 0.67,5.82 ± 2.7,3.93 ± 0.86
TTCCTG,–,1.68 ± 1.1,–
GAGGAC,0.554 ± 0.041,1.69 ± 0.53,1.18 ± 0.34
ACGCGC,1.29 ± 0.8,1.84 ± 0.96,1.07 ± 0.86
CACCAA,3.7 ± 1.4,5.67 ± 2.1,4.26 ± 1.8
TCATTA,2.21 ± 1.8,3.48 ± 1.3,2.44 ± 0.056
ATTCCT,1.97 ± 0.65,2.93 ± 1.1,2.19 ± 0.27
ACCAGA,3.67 ± 1.1,5.9 ± 2,4.14 ± 0.99
TCGTGC,1.59 ± 1.2,2.34 ± 0.31,1.59 ± 0.089
GGCGAC,2.53 ± 0.11,4.08 ± 1.4,2.47 ± 1.2
TGTCTC,2.62 ± 0.093,4.13 ± 1.7,3.34 ± 0.98
CGGATC,0.825 ± 0.23,1 ± 0.26,1.03 ± 0.13
GTATAG,–,3.69 ± 0.99,1.79 ± 0.37
CAGCTC,1.95 ± 0.3,2.37 ± 0.79,1.8 ± 0.74

# Reference: the supplement of paper PMC9433436
